According to the supplement of paper PMC11417369:
This is one part of the list.

The sequences below were run on PfAP2-HC AP2 domain (GST-tagged) (assay: gcPBM binding intensity (ln(normalized median fluorescence intensity)); higher = stronger DNA binding).
Outline: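 In this array assay, P. falciparum DNA-binding domains with a GST tag, expressed in E. coli, were applied for 1 h to primer-extended double-stranded 36-bp intergenic genomic probes and negative controls on an Agilent 4 × 180k array. Bound protein was visualised with Alexa488 anti-GST antibody at 488 nm. Binding intensity is the highest Masliner-normalised natural-log median intensity across replicate spots of either probe orientation.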

Row | Sequence | gcPBM binding intensity (ln)
1 | CATTATGTCATAAATGCACACATATACATTGTTTTG [CACACA_site8118] | 9.95
2 | AGAAAAAAAATATACACACATACGATCATACATATG [CACACA_site2171] | 9.99
3 | TACATAGAGTTTGTTTGTACTCATATGCGTAAATTC [XGTACX_site4810] | 9.55
4 | ACCTCTTTGAAATATACACACTAAACATATCAACTT [CACACA_site5372] | 9.97
5 | TCTGTAGTTTTTTACAGTACTTTTAGGTAATACATA [XGTACX_site7417] | 9.53
6 | AAAACACCCAAACACACACACACATATATATATATA [CACACA_site9119] | 10.8
7 | TTCTTGTATTTTCATAGTACATATAATGTCGTGTTA [XGTACX_site7714] | 9.8
8 | TTTCTTTTTTTTTTTTTTTCTGGCTTTTTCTCTTTT [TGCATGCA_negctrl_site599] | 9.57
9 | TTTTTATTTTTTTTATGTACACAAATGATATACATA [XGTACX_site5910] | 9.64
10 | AGGATACACGGACACACACACATATAGATTTATATA [CACACA_site6552] | 10.6
11 | ATTATTTTTCTATGTGTGCACGTGTGGAATGTGTCT [GTGCAC_site9507] | 10
12 | TTCTGAACAAAATTATATATTTATTTTTATTTTCAT [CACACA_negctrl_site422] | 9.7
13 | TATATTACTTAAAATACACACCATGGAAAAGTTTTA [CACACA_site5443] | 9.69
14 | ATTACATGTTACTTAACACACATCTGGTGAAATAAT [CACACA_site171] | 9.74
15 | TTAATTAAAATTTATACATGCATAAAAGAAATACAC [TGCATGCA_site537] | 9.75
16 | ATTTTTTTCTTTTCTTTTTTCTTTTTTTTTTTTGGT [CACACA_negctrl_site1146] | 9.59
17 | GTAATGAAACATTGCACACATATAATAATATAATAT [CACACA_site1422] | 9.84
18 | ATAAGATGATGGAACTGTAATATATATATATATATA [CACACA_negctrl_site839] | 9.61
19 | TTTAAGAGTTGCACACGTACAAAAAAAAAAAAAAAA [XGTACX_site7406] | 9.47
20 | TTGTATACATAAAATGGTACAGAATATATAATTCTA [XGTACX_site7236] | 9.45
21 | GTATACCAACATATTATACACACCTTTATATTTTTT [CACACA_site2153] | 10
22 | TGCAACAAAATAAACACACACACACCCCCACAAAAA [CACACA_site3388] | 10.6

Row | Sequence | gcPBM binding intensity (ln)
23 | AATAAAAAAATAAAATGTACATACAAATAAATAAAT [XGTACX_site5153] | 9.9
24 | TATTTTAATGAAGCATTTAAGGGAAAAAAAAAAAAA [TGCATGCA_negctrl_site606] | 9.25
25 | TTATACTGTTTCAGAAAAATAAAGAATGAAAGTATT [XGTACX_negctrl_site230] | 9.55
26 | TTTTTATATTCCCCCAGTACATATATAATAGTAGTA [XGTACX_site7927] | 9.65
27 | AAGTAATACAACACGCACATATATATATATATATAT [GTGCAC_negctrl_site89] | 10
28 | TTATAGCCTGTGAAGAGTACATTTTTATTTTTTATT [XGTACX_site4105] | 9.59
29 | TACCTAAATAAATGGACACACACATATATATATATA [CACACA_site8407] | 10.1
30 | TATTTTTAAATATAAAGTACTTATATTAACTACGAA [XGTACX_site1524] | 9.31
31 | ATTTTTTCTGTCTTAATTGGACCCACTGCAAATGGG [CACACA_negctrl_site1158] | 9.14
32 | ATAATACAAAAAAAAAAAAAAAATAAAATAATAAAA [GTGCAC_negctrl_site722] | 9.53
33 | ATATATATGCATATATGTACTTAAAATATAAAGGCA [XGTACX_site3256] | 9.63
34 | TTCATATATTTTAAAGCATGCATTCATCTTATAGTT [TGCATGCA_site800] | 9.71
35 | TTTACGCTATAGGAGAGTACTTATAAAATCCTGTGT [XGTACX_site2364] | 9.62
36 | TACAAAATATATATGACACACACAAAAAAAGTATAT [CACACA_site8455] | 10.4
37 | TATTTTTCCATTGGGGGTACATGTGTTATATTTATT [XGTACX_site5914] | 9.94
38 | AGACGAAAATAATAAAGTACTAAAAAAAAAAAAAAA [XGTACX_site927] | 9.23
39 | TTTCCCAAGCTTATTACACACAAGTAGAATAAGCTT [CACACA_site1561] | 9.61
40 | TATATAGGTAAAAAATGTACTTATATTGAATATATT [XGTACX_site4414] | 9.61
41 | TTTACAATATTAAAATGTACATATAAAATAAATAAA [XGTACX_site8367] | 9.62
42 | GATATCAAATATAAATGTACAAATTATATATACATA [XGTACX_site3228] | 9.63
43 | TTCTTATTTATTTTCTTCTCCTTCCTCAAATTTTTT [GTGCAC_negctrl_site592] | 9.59
44 | AATTTGTTAATATTTTGTACACATAATATAAAAACA [XGTACX_site2224] | 9.55
